Several values for one entry are separate records, joined by “and”; a condition that tells them apart may be missing. Equal values may be shown once. In all, about 220,000 compounds went through this assay and about 5,700 (2.6%) were called active. This list was built around the results that the source calls inconclusive (neither active nor inactive); the mix of calls is not that of the screen. The call rests on the fitted dose curve; in most records, active means well fitted inhibition curve with a large enough effect; inconclusive means small, poorly fitted or top-dose-only effect; inactive means no such curve, though single readings can be large or run the other way. Potencies beside an inconclusive call are fits to weak or partial responses and may not hold up.
target: Lysine-specific demethylase 5B (Homo sapiens) (UniProt Q9UGL1); experiment: Primary screen for KDM5B Histone Demethylases FDH-coupled qHTS; conditions: FDH-coupled NADH fluorescence (FDH is formaldehyde dehydrogenase); series mostly up to 57.7 µM; further: nearly all actives have a fitted effect of over 70% in size
Procedure, shortened: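 Coupled FDH/NAD⁺ fluorescence readout. KDM5BΔAP 200 nM final; compound titration, 10 min RT preincubation; substrate mix 12.5 µM H3K4me3, 25 µM 2-OG, 50 µM Fe(II), 100 µM ascorbate, 0.25 mM NAD⁺, 0.25 U/mL FDH; ΔRFU over 30 min.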
Potency means the concentration at half of the fitted maximal effect; tags describe the fitted curve by direction and shape.

UniProt Q9UGL1, sequence (Q9UGL1 whole entry, looked up): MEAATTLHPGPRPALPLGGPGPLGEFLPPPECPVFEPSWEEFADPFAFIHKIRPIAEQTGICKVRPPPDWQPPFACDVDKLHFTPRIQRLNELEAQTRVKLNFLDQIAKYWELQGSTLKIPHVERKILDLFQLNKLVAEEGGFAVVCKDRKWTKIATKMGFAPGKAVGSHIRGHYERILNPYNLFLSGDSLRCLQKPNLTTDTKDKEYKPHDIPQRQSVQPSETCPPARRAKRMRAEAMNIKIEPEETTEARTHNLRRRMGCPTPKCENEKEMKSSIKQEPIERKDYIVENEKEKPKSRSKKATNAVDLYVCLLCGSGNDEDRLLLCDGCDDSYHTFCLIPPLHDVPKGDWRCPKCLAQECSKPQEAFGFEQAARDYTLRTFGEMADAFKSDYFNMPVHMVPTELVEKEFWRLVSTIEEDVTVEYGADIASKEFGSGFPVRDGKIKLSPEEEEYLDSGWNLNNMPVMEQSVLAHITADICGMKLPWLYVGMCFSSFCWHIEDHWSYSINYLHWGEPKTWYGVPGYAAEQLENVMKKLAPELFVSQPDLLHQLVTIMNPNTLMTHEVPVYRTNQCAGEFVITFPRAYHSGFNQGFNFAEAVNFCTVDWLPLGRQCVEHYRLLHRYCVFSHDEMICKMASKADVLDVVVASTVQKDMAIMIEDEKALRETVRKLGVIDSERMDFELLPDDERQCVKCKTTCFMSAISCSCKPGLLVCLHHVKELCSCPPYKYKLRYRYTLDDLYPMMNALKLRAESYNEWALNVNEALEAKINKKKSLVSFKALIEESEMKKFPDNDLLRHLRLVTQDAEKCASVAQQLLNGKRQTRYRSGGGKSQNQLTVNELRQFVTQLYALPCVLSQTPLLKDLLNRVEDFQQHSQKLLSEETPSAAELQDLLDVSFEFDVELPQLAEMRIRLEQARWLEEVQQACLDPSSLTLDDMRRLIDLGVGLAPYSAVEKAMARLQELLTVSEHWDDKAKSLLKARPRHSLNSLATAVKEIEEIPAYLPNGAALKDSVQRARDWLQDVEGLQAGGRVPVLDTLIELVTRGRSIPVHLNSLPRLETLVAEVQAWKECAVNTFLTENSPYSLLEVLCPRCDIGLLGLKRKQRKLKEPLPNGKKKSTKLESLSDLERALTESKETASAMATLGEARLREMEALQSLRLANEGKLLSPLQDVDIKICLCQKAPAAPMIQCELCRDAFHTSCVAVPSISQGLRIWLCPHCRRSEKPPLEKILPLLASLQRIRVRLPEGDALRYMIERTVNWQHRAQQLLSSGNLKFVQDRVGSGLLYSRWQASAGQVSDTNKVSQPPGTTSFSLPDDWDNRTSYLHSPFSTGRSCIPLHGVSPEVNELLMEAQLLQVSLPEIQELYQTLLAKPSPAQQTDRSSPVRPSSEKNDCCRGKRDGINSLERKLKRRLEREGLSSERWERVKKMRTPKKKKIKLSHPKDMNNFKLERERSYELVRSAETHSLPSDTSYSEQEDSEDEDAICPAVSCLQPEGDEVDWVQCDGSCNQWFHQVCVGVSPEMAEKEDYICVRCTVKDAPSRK

Row | SMILES | Potency
1 | CC(C)NC(=O)CN1CCCN(C(=O)c2cc3ccccc3n2C)CC1 | inconclusive: 39.8 µM [inhibitor, single point]
2 | COc1ncccc1-c1nccc2c(=O)cc(N(C)c3ccccc3)oc12 | inactive
3 | O=C(NC1CCCCCCC1)c1cc2cccc([N+](=O)[O-])c2[nH]1 | inactive
4 | CCc1cccc(C)c1NC(=O)CC12CC3CC(CC(C3)C1)C2 | inactive
5 | O=C(NCC1CC1)c1csc(N2CCN(c3ccccc3F)CC2)n1 | inconclusive: 12.6 µM [inhibitor, partial curve, poor fit]
6 | Cc1ccccc1OCC(=O)Nc1ccc2nc(SCCOc3ccccc3)sc2c1 | inconclusive: 14.1 µM [inhibitor, partial curve, poor fit]
7 | O=C(c1n[nH]c2ccccc12)N1CC(Oc2ccccc2-c2nc(C3CC3)no2)C1 | inconclusive: 20 µM [inhibitor, single point]
8 | CC(C)c1ccc2oc(-c3cc(NC(=O)c4cccnc4)ccc3Cl)nc2c1 | inconclusive: 8.91 µM [inhibitor, partial curve, poor fit] and inconclusive: 28.2 µM [inhibitor, partial curve, poor fit]
9 | COc1cccc2c1cc1c(=O)n(CC(=O)NCc3ccc(N(C)C)cc3)nc(C)n12 | inconclusive: 31.6 µM [inhibitor, partial curve, poor fit]
10 | CC(C)c1ccc(CC(=O)N2CCCc3ncc(C(=O)NCCc4ccccc4)cc32)cc1 | inactive
11 | COc1cccc(NC(=O)c2sc3nc(C)c(C(=O)Nc4ccc(C)cc4C)c(-c4ccc(C)o4)c3c2N)c1 | inconclusive: 25.1 µM [inhibitor, partial curve, poor fit]
12 | O=C(NCc1cccs1)c1ccccc1-c1ccccc1 | inactive
13 | CN(CC(=O)Nc1cc2[nH]c(=O)[nH]c2cc1Br)Cc1ccccc1N1CCCCC1 | inactive
14 | COc1ccc(-c2ccc(C(=O)O)cc2)cc1 | inconclusive: 22.4 µM [inhibitor, partial curve, poor fit]
15 | COc1ccc(N2CCC(NC(=O)c3ccc(N(C)C)cc3)C2=O)cc1 (stereo not given) | inconclusive: 39.8 µM [inhibitor, single point]
16 | Cc1ccc(C(=O)N2CCCC(c3noc(COc4ccccc4)n3)C2)s1 (stereo not given) | inactive
17 | Cc1cc(NC(=O)CN2CCN(C(=O)c3cccc(Cl)c3Cl)CC2)no1 | inactive
18 | CCc1cccc(C)c1NC(=O)Cc1nn(C)c(=O)c2ccccc12 | inactive
19 | CCc1nc2cc(N3CCCC(C(=O)NCc4ccccn4)C3)cnc2nc1CC (stereo not given) | inactive
20 | Cc1ccc(S(=O)(=O)NC(CO)C(=O)O)cc1 (stereo not given) | inactive
21 | COCCCN(CCC(=O)NCc1ccc2c(c1)OCO2)C(=O)c1cc(C)oc1C | inconclusive: 31.6 µM [inhibitor, partial curve]
22 | O=C(Nc1cccc(F)c1)C1CCN(S(=O)(=O)c2ccc3[nH]c4c(c3c2)CCCCC4)CC1 | inconclusive: 17.8 µM [inhibitor, partial curve, poor fit]

Row | SMILES | Potency
23 | COc1cc(O)ccc1-c1nc2cc(C)ccn2c1Nc1ccccc1C | inconclusive: 31.6 µM [inhibitor, partial curve, poor fit]
24 | Cn1c(SCC(=O)NC2CCCC2)nnc1-c1ccc(Cl)cc1 | inactive
25 | CCOC(=O)C1CCCN(C(=O)Cn2ncc3c4ccccc4n(C)c3c2=O)C1 (stereo not given) | inconclusive: 28.2 µM [inhibitor, partial curve, poor fit]
26 | Cc1ccccc1CN1CC[C@@H]2OCC(=O)N(C(C)C)[C@H]2CC1 | inactive
27 | CCCOc1ccc(C(=O)Nc2nc(-c3ccc(OC)cc3)c(C)s2)cc1OC | inconclusive: 1.78 µM [inhibitor, partial curve, poor fit]
28 | Cc1cn2nc(C(=O)NCCCc3ccccc3)cc2c(N2CCSCC2)n1 | inconclusive: 28.2 µM [inhibitor, partial curve, poor fit]
29 | CC1(c2ccccc2)N(Cc2ncccn2)C(=O)OC12CCN(C(=O)Cc1ccc(O)cc1)CC2 (stereo not given) | inconclusive: 28.2 µM [inhibitor, single point]
30 | O=C(NCc1cccc(Cl)c1)c1ccc2c(Cl)c3c(nc2c1)CCCC3 | inconclusive: 14.1 µM [inhibitor, partial curve, poor fit]
31 | Cn1nc(CC(=O)NCc2ccccc2CN2CCCCC2)c2ccccc2c1=O | inactive
32 | Cc1nc(-c2ccc(CNC(=O)NCc3ccccc3)s2)cs1 | inconclusive: 39.8 µM [inhibitor, single point]
33 | O=c1n(-c2ccc(F)cc2F)nc2n1CCN(CC1CC1)C2 | inconclusive: 35.5 µM [inhibitor, single point]
34 | Cc1noc2c(Nc3ccc(C(N)=O)cc3)cc(-c3cccnc3)nc12 | inconclusive: 39.8 µM [inhibitor, single point]
35 | Cc1ccc(C)c(CSc2cn(CCNC(=O)c3cccs3)c3ccccc23)c1 | inconclusive: 22.4 µM [inhibitor, single point]
36 | CN(C)c1nc(-c2ccccc2)nc2c1CCN(C(=O)C1CCOC1)C2 (stereo not given) | inconclusive: 8.91 µM [inhibitor, partial curve, poor fit]
37 | COc1ccccc1-c1nc(-c2nnn3c2COC(c2ccc(C)cc2)C3)no1 (stereo not given) | active: 12.6 µM
38 | Cc1ccc(C)c(-c2cc3c(=O)n(CCNC(=O)c4cccc(N(C)C)c4)ccn3n2)c1 | active: 31.6 µM
39 | Cc1cccc(NC(=O)CN2C(=O)CC(c3ccccc3)Sc3ccccc32)c1 (stereo not given) | inconclusive: 25.1 µM [inhibitor, partial curve, poor fit]
40 | COc1ccc(CC(=O)NC2CCc3nnc(C)n3CC2)cc1Cl (stereo not given) | inconclusive: 28.2 µM [inhibitor, partial curve, poor fit]
41 | CC(=O)N(Cc1cc2cccc(C)c2[nH]c1=O)C(C)(C)C | inconclusive: 28.2 µM [inhibitor, single point]
42 | Oc1cccc(Nc2cc(-c3ccccc3)ncn2)c1 | inconclusive: 17.8 µM [inhibitor, partial curve, poor fit]
43 | Cc1ccsc1/C=N/n1c(-c2cc(-c3ccccc3)n[nH]2)n[nH]c1=S | inconclusive: 8.91 µM [inhibitor, full curve, poor fit]
44 | CC(C)(C)C(=O)Nc1ccc2nc(SCCOc3ccccc3Cl)sc2c1 | inconclusive: 35.5 µM [inhibitor, single point]

Row | SMILES | Potency
45 | CC(C)C1=NOC2(CCN([S+](=O)([O-])c3cccs3)C2)C1 (stereo not given) | inconclusive: 112 µM [inhibitor, partial curve, poor fit]
46 | COc1ccc(NC(=O)c2ccc3c(c2)NC(C)(COCC2CC2)CO3)cn1 (stereo not given) | inconclusive: 31.6 µM [inhibitor, single point]
47 | CC(Oc1ccc2c(=O)c(-c3ccc(Cl)cc3)c(C(F)(F)F)oc2c1)C(=O)O (stereo not given) | inactive
48 | CN1C(=O)C(c2ccccc2)CC12CCN(Cc1ccc(C#N)cc1)CC2 (stereo not given) | inconclusive: 22.4 µM [inhibitor, partial curve, poor fit]
49 | O=C(C[C@@H]1CCNC[C@@H]1Cc1cc(CN2CCOCC2)on1)NCCN1CCOCC1 | inactive
50 | NC(=O)[C@H](CC1CCCCC1)NC(=O)[C@H]1CN(C(=O)C2CCNCC2)CCN1C(=O)N1CCOCC1 | inactive
51 | Cn1cc(CC(=O)N2CCCc3ncc(C(=O)NCCc4ccccc4)cc32)c2ccccc21 | inactive
52 | Cc1ccc(-c2cc(C(=O)NC3=NCCS3)c3ccccc3n2)s1 | inconclusive: 28.2 µM [inhibitor, partial curve, poor fit]
53 | COc1ccc2c(=O)c(-c3cnn(-c4ccccc4)c3)c(C(F)(F)F)oc2c1 | inactive
54 | Cc1c(Cl)cccc1NCC(=O)N1CCNC1=O | inactive
55 | NC1(C(=O)N2CCCC(CCc3cccc(C(F)(F)F)c3)C2)CC1 (stereo not given) | inconclusive: 31.6 µM [inhibitor, partial curve, poor fit]
56 | COC(=O)CNC(=O)c1nc(-c2ccc(F)cc2)c2cnccn12 | active: 39.8 µM
57 | Cc1cccc(NC(=O)N2CCC(CCNS(=O)(=O)c3c(C)cc(C)cc3C)CC2)c1 | inactive
58 | CC1CCCN(C(=O)C2CCN(Cc3ccc4c(c3)OCO4)CC2)C1 (stereo not given) | inconclusive: 14.1 µM [inhibitor, partial curve, poor fit]
59 | CS(=O)(=O)c1ccc(-c2cnc([C@@H]3COCCN3Cc3ccc(Cl)cc3)[nH]2)cc1 | inconclusive: 39.8 µM [inhibitor, single point]
60 | O=C(O)COc1ccccc1C1Nc2ccccc2-c2nnc(SCc3ccc(Cl)cc3)nc2O1 (stereo not given) | inconclusive: 17.8 µM [inhibitor, partial curve, poor fit]
61 | CC1=C(C(=O)OC(C)C)C(c2ccc(C)cc2)N2C(CC(=O)N(C)Cc3ccco3)=CSC2=N1 (stereo not given) | inconclusive: 25.1 µM [inhibitor, partial curve, poor fit]
62 | CCc1cnc(N2CCC(Oc3cnc4c(ccn4CCN[S+](C)(=O)[O-])c3)CC2)nc1 | active: 28.2 µM
63 | Cc1c(CC(=O)Nc2ccc(C(C)C)cc2)c(=O)oc2cc(O)ccc12 | inconclusive: 8.91 µM [inhibitor, full curve, poor fit]
64 | COc1ccc(C(=O)N2CCCC3(C2)C(=NC2CCCC2)NC(=O)N3c2cc(F)cc(F)c2)cc1 (stereo not given) | inactive
65 | O=C(CCC[C@@H]1[C@H]2CCCN3CCC[C@@H](CN1C(=O)c1ccsc1)[C@@H]23)N1CCOCC1 | inconclusive: 39.8 µM [inhibitor, partial curve, poor fit]
